# Results taken from PubChem BioAssay AID360 (National Center for Advancing Translational Sciences (NCATS), 2006).
# Out of some 48,000 compounds screened, about 550 (1.1%) were called active. Roughly 4% stayed inconclusive and do not appear here. No stated cut-off is given here; in the data, active means potency below about 15 µM; inconclusive means mostly about 16 µM to 33 µM; inactive means weaker than that. The list shows a part of the results.
# Biological target: Lysosomal acid glucosylceramidase (Homo sapiens) (UniProt P04062)
# Experiment: Glucocerebrosidase;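 further: the screen sought inhibitors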
# Details: purified enzyme, resorufin glucoside fluorescence (screen aimed at inhibitors), 20 min
# Method in brief: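 Compounds titrated against 0.2 nM normal enzyme, 30 uM resorufin beta-D-glucopyranoside substrate, citrate/phosphate buffer with taurocholate and tween-20, pH 5.9. Reaction ran 20 min at room temperature; fluorescence (Ex 548/Em 600) gave AC50.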
# Potency means the concentration at half of the fitted maximal effect.
# Sequence of UniProt P04062 (P04062 whole entry, looked up): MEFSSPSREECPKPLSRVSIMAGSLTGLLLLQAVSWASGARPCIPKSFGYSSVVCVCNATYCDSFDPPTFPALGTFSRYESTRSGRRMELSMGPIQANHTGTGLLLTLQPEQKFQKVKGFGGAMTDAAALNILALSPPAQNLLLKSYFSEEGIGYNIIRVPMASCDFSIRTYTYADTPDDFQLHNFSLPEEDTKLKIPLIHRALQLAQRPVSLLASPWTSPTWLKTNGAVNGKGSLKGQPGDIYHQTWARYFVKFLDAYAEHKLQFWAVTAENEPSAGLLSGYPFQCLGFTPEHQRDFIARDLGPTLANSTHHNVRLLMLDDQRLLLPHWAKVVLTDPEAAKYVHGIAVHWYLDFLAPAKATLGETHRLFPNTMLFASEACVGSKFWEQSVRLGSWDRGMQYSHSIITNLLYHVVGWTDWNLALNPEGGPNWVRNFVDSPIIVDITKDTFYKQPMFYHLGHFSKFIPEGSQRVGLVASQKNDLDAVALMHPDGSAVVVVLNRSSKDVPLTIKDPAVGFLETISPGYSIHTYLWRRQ
row,Compound,Potency
1,CC(=NCCC1=CCCCC1)c1c(O)n(C)c(=O)n(C)c1=O,inactive: > 76.9 µM
2,Cc1ccc(N2C(=O)CC(=O)NC2=O)cc1,inactive: > 76.9 µM
3,Cc1nn(Cc2ccccc2Cl)c(Cl)c1C(=O)OCC(=O)NCc1ccco1,inactive: > 76.9 µM
4,CN1C(=O)c2ccccc2Sc2ccc(C(=O)N3CCC4(CC3)OCCO4)cc21,inactive: > 76.9 µM
5,CCCCn1c(O)c(C(C)=Nc2c(C)n(C)n(-c3ccccc3)c2=O)c(=O)[nH]c1=O,inactive: > 76.9 µM
6,CCCCN1C(=O)NC(=O)C2(Cc3c(nc4c(C)cccn4c3=O)N3CCc4ccccc4C32)C1=O (stereo not given),inactive: > 76.9 µM
7,CCC(=O)N1CCN(CCN=Cc2c(O)n(C)c(=O)n(C)c2=O)CC1,inactive: > 76.9 µM
8,C[n+]1ccc(-c2ccncc2)cc1,inactive: > 76.9 µM
9,COc1ccc(C2NCc3ccc4c(c3-n3cccc32)OCO4)cc1O (stereo not given),inactive: > 76.9 µM
10,COC(=O)CC1NC2CCCCC2NC1=O (stereo not given),inactive: > 76.9 µM
11,Cc1nonc1-c1nc(-c2nonc2N)n[nH]1,inactive: > 76.9 µM
12,CCOC(=O)c1[nH]c(C)c(C(=O)N2CCC3(CC2)OCCO3)c1C,inactive: > 76.9 µM
13,CCn1nc(-c2ccccc2)nc2c(=O)n(C)c(=O)nc1-2,inactive: > 76.9 µM
14,Cc1ccc(CN2CCN(CC(=O)N3CCC4(CC3)OCCO4)C2=O)cc1,inactive: > 76.9 µM
15,C(=NC12CN3CN(CN(C3)C1)C2)c1cccnc1,inactive: > 76.9 µM
16,O=C(c1cc2cc3ccc(Cl)cc3nc2o1)N1CCC2(CC1)OCCO2,inactive: > 76.9 µM
17,O=c1c2ccccc2nc(CN2CCOCC2)n1-c1ccccc1F,inactive: > 76.9 µM
18,COC(=O)c1ccc(N2C(=O)CC(N3CCC(n4c(=O)[nH]c5ccccc54)CC3)C2=O)cc1 (stereo not given),inactive: > 76.9 µM
19,CCOC(=O)C1C(=O)N(C)C2(C)CC1c1ccccc1O2 (stereo not given),inactive: > 76.9 µM
20,Cc1cc(OC(=O)CCNC(=O)OC(C)(C)C)c2c3c(c(=O)oc2c1)CCC3,inactive: > 76.9 µM
21,CCOC(=O)c1c(C)n(COCCO)c2ccc(O)cc12,inactive: > 76.9 µM
22,O=C(CNS(=O)(=O)c1cccs1)N1CCC2(CC1)OCCO2,inactive: > 76.9 µM
23,Cc1ccnc(-n2c(-c3ccco3)nc3ccccc3c2=O)c1,inactive: > 76.9 µM
24,Cc1ccc2c(c1)N(CCC(=O)N1CCC3(CC1)OCCO3)C(=O)C(C)O2 (stereo not given),inactive: > 76.9 µM
25,O=c1c2ccccc2nc(-c2ccco2)n1-c1ccc(Br)cn1,inactive: > 76.9 µM
